Reference: paper PMC3702553
Results are given in words; binding and its absence hold for the method and conditions named. In cells and extracts the contact can be indirect. Some results given as binding are weak or reduced against the parent protein; the word gives no strength.

Protein sequences, listed by entry. Tags and fused reporters are not part of them. Lines headed by an entry give the natural chain unless they say otherwise; changes in a name come on top. Chains listed by the source or under a name are the forms on record and can include a tag or linker.
UniProt Q9Y5X1: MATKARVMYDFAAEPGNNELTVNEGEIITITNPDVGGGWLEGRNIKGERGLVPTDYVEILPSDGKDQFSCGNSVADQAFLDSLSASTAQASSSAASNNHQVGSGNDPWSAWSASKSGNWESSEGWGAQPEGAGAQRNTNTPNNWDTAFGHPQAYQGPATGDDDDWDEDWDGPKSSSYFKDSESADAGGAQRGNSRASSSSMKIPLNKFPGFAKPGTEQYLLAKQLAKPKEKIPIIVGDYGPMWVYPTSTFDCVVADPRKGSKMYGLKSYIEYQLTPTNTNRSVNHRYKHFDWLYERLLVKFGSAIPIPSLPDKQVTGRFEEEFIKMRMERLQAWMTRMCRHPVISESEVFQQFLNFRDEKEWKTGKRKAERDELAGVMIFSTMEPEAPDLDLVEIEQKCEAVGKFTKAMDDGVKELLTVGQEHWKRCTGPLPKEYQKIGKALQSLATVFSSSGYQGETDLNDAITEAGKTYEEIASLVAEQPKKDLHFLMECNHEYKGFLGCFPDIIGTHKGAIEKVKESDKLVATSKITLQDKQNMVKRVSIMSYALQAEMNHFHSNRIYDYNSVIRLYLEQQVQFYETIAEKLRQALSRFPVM
GST-SNX9 LC1W1 mutant (107PWSAW to 107PSSAW) (Q9Y5X1, form named): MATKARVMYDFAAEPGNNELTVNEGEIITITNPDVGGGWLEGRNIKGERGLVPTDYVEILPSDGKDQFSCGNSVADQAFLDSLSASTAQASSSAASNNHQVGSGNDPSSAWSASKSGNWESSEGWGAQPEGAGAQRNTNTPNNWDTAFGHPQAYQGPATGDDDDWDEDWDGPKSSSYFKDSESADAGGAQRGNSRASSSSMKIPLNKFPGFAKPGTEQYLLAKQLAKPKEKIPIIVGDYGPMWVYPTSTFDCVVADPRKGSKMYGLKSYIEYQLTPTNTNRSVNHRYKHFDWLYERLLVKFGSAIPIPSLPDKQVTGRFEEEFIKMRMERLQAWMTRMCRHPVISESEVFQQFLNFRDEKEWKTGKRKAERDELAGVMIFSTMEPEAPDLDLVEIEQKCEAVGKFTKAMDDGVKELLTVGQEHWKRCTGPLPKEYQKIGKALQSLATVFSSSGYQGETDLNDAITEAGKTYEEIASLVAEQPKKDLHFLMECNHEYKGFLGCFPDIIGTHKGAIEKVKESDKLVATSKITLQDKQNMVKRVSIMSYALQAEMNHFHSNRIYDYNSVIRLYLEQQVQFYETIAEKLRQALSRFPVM
GST-SNX9 LC2W1 mutant (164DWDEDW to 164DSDEDW) (Q9Y5X1, form named): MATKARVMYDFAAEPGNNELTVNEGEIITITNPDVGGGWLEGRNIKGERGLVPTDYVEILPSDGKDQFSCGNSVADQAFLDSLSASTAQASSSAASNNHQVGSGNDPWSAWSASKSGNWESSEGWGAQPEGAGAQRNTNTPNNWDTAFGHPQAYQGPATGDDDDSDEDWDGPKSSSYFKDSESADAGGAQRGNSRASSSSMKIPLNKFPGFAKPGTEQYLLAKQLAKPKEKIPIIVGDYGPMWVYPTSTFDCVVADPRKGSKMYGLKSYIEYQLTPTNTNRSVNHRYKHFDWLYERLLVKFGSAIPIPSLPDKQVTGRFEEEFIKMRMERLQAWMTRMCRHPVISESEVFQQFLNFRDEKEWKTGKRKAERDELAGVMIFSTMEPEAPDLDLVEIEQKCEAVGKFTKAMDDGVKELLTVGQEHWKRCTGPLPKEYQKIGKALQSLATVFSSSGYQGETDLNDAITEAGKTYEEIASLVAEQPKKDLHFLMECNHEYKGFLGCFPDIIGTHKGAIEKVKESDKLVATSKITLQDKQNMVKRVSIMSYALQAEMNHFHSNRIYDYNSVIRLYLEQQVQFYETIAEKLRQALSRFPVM
GST-SNX9 LC1 mutant (107PWSAW to 107PSSAS) (Q9Y5X1, form named): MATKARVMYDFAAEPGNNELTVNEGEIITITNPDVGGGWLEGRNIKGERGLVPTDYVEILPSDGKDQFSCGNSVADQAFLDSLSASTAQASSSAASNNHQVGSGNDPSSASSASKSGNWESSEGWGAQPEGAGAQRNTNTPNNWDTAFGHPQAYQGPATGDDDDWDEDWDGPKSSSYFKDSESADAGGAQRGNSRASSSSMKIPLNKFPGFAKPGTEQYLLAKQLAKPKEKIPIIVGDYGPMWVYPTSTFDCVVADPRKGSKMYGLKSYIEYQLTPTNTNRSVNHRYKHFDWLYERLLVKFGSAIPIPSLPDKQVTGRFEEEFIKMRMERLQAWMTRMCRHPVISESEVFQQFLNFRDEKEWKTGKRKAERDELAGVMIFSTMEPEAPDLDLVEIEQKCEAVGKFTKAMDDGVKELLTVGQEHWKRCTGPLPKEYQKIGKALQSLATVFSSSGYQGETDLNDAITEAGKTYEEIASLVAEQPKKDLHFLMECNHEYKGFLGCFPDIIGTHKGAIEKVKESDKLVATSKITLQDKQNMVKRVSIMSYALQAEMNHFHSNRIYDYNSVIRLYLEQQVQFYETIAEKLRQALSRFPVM
GST-SNX9 LC2 mutant (164DWDEDW to 164DSDEDS) (Q9Y5X1, form named): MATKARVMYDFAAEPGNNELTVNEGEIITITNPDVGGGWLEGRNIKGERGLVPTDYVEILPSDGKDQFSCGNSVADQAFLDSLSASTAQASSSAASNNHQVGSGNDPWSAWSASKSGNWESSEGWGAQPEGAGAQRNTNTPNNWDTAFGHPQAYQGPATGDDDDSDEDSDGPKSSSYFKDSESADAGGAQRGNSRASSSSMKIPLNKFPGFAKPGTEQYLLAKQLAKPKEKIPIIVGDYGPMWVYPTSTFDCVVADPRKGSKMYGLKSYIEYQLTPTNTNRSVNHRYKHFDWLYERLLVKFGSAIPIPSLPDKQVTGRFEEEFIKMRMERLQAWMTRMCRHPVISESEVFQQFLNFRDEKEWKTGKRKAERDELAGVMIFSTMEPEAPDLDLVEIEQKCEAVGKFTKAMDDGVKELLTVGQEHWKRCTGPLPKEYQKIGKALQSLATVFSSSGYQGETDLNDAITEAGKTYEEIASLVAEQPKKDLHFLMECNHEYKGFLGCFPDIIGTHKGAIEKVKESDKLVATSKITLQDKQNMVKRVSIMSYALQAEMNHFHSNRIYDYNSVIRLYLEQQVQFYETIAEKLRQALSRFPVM
UniProt Q00610: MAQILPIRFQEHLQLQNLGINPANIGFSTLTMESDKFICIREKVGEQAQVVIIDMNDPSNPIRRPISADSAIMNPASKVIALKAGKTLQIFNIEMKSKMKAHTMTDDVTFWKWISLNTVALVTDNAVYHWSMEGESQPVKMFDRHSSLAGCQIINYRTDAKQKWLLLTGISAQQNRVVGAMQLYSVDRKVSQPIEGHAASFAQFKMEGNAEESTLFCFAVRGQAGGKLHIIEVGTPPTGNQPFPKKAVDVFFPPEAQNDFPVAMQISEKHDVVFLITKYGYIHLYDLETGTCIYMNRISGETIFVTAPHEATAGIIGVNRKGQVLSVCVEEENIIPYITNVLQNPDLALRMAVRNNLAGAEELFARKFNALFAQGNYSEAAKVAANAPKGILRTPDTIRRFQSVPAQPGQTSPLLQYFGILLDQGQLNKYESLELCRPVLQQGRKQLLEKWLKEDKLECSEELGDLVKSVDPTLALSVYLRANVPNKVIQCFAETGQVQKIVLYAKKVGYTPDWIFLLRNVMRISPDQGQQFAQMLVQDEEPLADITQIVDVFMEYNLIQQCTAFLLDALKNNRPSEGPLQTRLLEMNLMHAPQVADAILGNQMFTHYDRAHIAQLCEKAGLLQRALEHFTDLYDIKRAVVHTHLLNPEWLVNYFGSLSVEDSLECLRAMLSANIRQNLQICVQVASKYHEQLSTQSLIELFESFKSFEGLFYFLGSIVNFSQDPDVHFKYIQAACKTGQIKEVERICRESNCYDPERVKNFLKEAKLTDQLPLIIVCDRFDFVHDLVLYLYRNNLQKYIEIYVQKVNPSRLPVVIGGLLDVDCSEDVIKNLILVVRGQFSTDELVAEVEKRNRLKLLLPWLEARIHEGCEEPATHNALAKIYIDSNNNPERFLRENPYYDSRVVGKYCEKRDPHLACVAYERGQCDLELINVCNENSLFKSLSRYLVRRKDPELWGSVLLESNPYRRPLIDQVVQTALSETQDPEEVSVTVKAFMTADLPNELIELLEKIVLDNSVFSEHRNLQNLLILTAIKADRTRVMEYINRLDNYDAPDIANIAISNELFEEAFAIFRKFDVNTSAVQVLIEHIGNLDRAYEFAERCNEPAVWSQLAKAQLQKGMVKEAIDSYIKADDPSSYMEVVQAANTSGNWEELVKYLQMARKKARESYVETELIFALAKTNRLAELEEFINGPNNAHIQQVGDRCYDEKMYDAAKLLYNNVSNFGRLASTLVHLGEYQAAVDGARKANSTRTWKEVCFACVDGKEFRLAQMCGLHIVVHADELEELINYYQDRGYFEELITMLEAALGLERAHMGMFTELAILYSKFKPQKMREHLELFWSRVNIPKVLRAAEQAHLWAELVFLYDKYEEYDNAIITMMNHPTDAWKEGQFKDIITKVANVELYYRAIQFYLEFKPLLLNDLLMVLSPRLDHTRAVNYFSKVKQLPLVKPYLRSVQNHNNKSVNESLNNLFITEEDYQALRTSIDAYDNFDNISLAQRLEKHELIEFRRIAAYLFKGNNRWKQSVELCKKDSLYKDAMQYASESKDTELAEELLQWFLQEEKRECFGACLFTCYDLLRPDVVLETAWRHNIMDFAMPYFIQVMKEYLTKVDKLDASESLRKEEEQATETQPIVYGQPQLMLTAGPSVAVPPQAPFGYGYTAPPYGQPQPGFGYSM

Columns and labels:
Assay in all cases: pull-down; GST-SNX9 (wild type or LC mutants) bound to GSH-Sepharose beads incubated with 2 mg of lysate of asynchronously growing HeLa cells for 1 h at 4°C; lysis buffer 25 mM Tris-HCl pH 7.4, 150 mM NaCl, 1 mM EDTA, 1 mM EGTA, 1% Triton X-100; bound proteins immunoblotted; only the target …
[1] = target: GST-SNX9 LC1W1 mutant (107PWSAW to 107PSSAW) (UniProt Q9Y5X1)
[2] = target: GST-SNX9 LC2W1 mutant (164DWDEDW to 164DSDEDW) (UniProt Q9Y5X1)
[3] = target: GST-SNX9 LC1 mutant (107PWSAW to 107PSSAS) (UniProt Q9Y5X1)
[4] = target: full length wild-type GST-SNX9 (sorting nexin 9) (UniProt Q9Y5X1)
[5] = target: GST-SNX9 LC2 mutant (164DWDEDW to 164DSDEDS) (UniProt Q9Y5X1)

Substance: clathrin heavy chain (CHC) (from UniProt Q00610 1-1675)
- binding [1]: no binding
- binding [2]: no binding
- binding [3]: no binding
- binding [4]: binds
- binding [5]: no binding
